Laboratory results reported in PMC11180213, “Development of an anti-tauopathy mucosal vaccine specifically targeting pathologic conformers” (NPJ Vaccines, 2024).

Target: the molecule itself
Test: native gel or EMSA; 10% native PAGE of 20 ug freshly purified TauRD or heparin-treated TauRD (heparin:TauRD 1:8, 5 days, 37 °C, in PBS), incubated with thioflavin S for 15 min at room temperature; fluorescence imaging of the gel

B1: recombinant TauRD polypeptide (tau repeat domain, 2N4R-hTau […]) (domain or fragment)
chain: not shown
notes: microtubule-associated protein tau, human, 4R-tau repeat region, […]; numbers count on: 2N4R human tau; Codon-optimised synthetic DNA cloned EcoRI-XhoI into pTYB12; A few vector-derived residues may remain at the ends after intein cleavage (surmised from the cloning sites); also called 4R-TauRD; 4R-tau repeat region; source: E. coli ER2566, purified (chitin bead column, IMPACT-CN System); …
Question: Does B1 bind?
Answer: binds
